{
  "source": "the antibiotic and cytotoxicity screens of Wong et al. (2023)",
  "note": "This is one part of the list.",
  "data": [
    {"tested_on": "HSkMC (human skeletal muscle cells)", "assay": "cytotoxicity call (relative viability < 0.9)", "conditions": "10 µM", "values": [
      {"compound": "COCC(=O)N1C[C@@H](C)[C@H](OC)CN(C)C(=O)c2ccc(NC(=O)Nc3ccccc3)cc2OC[C@H]1C", "cytotoxicity call": "inactive"},
      {"compound": "C[C@H](CO)N1C[C@H](C)[C@@H](CN(C)Cc2ccc(Cl)c(Cl)c2)Oc2c(NC(=O)Nc3ccc(F)cc3)cccc2C1=O", "cytotoxicity call": "active"},
      {"compound": "C[C@H]1CCCCO[C@H](CN(C)C(=O)Nc2ccc(C(F)(F)F)cc2)[C@@H](C)CN([C@@H](C)CO)C(=O)c2cc(NC(=O)c3ccccc3)ccc2O1", "cytotoxicity call": "inactive"},
      {"compound": "O=C(C[C@H]1C=C[C@@H](NC(=O)c2cccnc2)[C@@H](CO)O1)NCCN1CCCCC1", "cytotoxicity call": "inactive"},
      {"compound": "O=C(C[C@H]1CC[C@H]2[C@@H](COC[C@H](O)CN2S(=O)(=O)c2cccc(Cl)c2)O1)NCCCN1CCOCC1", "cytotoxicity call": "inactive"},
      {"compound": "C[C@@H]1CN([C@H](C)CO)C(=O)c2cc(NC(=O)C3CC3)ccc2O[C@@H]1CN(C)C(=O)Nc1ccc2c(c1)OCO2", "cytotoxicity call": "inactive"},
      {"compound": "OCc1ccc(O[C@@H]2O[C@H](CO)[C@@H](O)[C@H](O)[C@H]2O)cc1", "cytotoxicity call": "inactive"},
      {"compound": "C[C@@H]1CCCCO[C@@H](CN(C)CC2CC2)[C@@H](C)CN([C@H](C)CO)C(=O)c2cc(NC(=O)Nc3cccc4ccccc34)ccc2O1", "cytotoxicity call": "inactive"},
      {"compound": "O=C(Oc1cc(O)cc2c1C[C@@H](OC(=O)c1cc(O)c(O)c(O)c1)[C@@H](c1cc(O)c(O)c(O)c1)O2)c1cc(O)c(O)c(O)c1", "cytotoxicity call": "inactive"},
      {"compound": "CO[C@H]1O[C@H](CO)[C@@H](OC(=O)Nc2cccc(F)c2)[C@@H]2OC(=O)[C@H](Cc3cccc(Br)c3)C/C=C/C[C@@H](Cc3cccc(Br)c3)C(=O)O[C@@H]12", "cytotoxicity call": "inactive"}
    ]}
  ]
}
